Target: T1, IL-6 receptor α (human, UniProt P08887 20-365)
T1 construct: IL-6 receptor α (IL-6Rα); bought protein captured on the plate by an anti-IL-6Rα antibody; For this first ELISA it says only 'IL-6Rα (RnD Systems)'; also called IL-6Rα; sIL-6Rα; source: bought: RnD Systems
T1 sequence (looked up): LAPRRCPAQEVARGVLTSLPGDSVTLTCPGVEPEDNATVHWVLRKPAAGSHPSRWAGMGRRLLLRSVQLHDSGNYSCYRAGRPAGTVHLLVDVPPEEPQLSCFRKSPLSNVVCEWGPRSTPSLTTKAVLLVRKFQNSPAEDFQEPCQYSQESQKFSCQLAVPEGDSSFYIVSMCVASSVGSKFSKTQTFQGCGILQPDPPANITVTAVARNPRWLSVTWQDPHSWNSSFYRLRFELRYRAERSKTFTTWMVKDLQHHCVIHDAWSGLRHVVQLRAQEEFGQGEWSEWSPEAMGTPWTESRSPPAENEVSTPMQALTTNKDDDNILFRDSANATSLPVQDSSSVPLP
Assay: ELISA; competitive ELISA; IL-6Rα (250 ng/ml) captured on plates coated with anti-IL-6Rα antibody; bio-IL-6 at 0.615 nM pre-mixed 15 min with His6-Z proteins or tocilizumab in PBS with 0.5% casein, then 1.5 h on the plate; detected with streptavidin-HRP
Settings: both partners purified

B1: biotinylated human IL-6 (ligand)
chain: not shown
modifications: biotin (Sulfo-NHS-LC-Biotin)
notes: interleukin-6 (IL-6), human; The biotinylation of Peprotech hIL-6 is described for the phage selection; The SPR and cell assays used unlabelled hIL-6 from RnD Systems; also called bio-hIL-6; bio-IL-6; source: bought: Peprotech; biotinylated with No-Weigh Sulfo-NHS-LC-Biotin and dialyzed
- binding result: binds
